Laboratory results published in PubChem BioAssay AID1461 (National Center for Advancing Translational Sciences (NCATS), 2008).
The whole screen tested about 220,000 compounds, of which about 2,300 (1%) were called active. Inconclusive means that the source gave no clear call. Such entries were picked first, then a sample of the others. The call rests on the fitted dose curve; in most records, active means well fitted inhibition curve with a large enough effect; inconclusive means small, poorly fitted or top-dose-only effect, or effect the other way; inactive means no such curve, though single readings can be large or run the other way. Potencies of inconclusive entries are left out as doubtful fits.

Target: Neuropeptide S receptor (Homo sapiens) (UniProt Q6W5P4)
Assay: qHTS Assay for Antagonists of the Neuropeptide S Receptor: cAMP Signal Transduction; further: nearly all actives have a fitted effect of over 50% in size
Details: CHO-NPSR cells, cAMP TR-FRET, antagonist mode; activity change, negative = inhibition: at 38.3 µM (top of the series) unless noted
On the % scale 0 is the no-effect control and ±100 the full control effect; potency means the concentration at half of the fitted maximal effect; tags describe the fitted curve by direction and shape.

UniProt Q6W5P4, sequence (Q6W5P4 whole entry, looked up): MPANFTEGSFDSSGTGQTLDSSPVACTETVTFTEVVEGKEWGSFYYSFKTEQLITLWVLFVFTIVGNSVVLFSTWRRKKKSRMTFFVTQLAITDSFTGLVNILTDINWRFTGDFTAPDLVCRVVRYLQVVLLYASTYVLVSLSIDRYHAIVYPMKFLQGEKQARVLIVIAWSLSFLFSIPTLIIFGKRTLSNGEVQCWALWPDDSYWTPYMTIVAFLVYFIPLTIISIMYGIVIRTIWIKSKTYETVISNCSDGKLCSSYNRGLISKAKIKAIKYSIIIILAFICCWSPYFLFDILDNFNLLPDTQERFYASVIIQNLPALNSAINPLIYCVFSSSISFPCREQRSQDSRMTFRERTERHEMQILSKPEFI

Structure (SMILES) | Potency | activity change, negative = inhibition
CC(C)Cc1ccc(C(C)C(=O)Nc2ccccc2O)cc1 (stereo not given) | inconclusive [inhibitor, single point] | –
CCN(CC)C(=N)/C(C#N)=N/Nc1ccc(C)cc1 | inconclusive [activator, partial curve] | –
O=C(CN1CCCc2ccccc21)N/N=C/c1ccccc1 | – | inactive: -15.7%
CCCC12CN3CCN(CC(C3)/C1=N\NC(=O)Nc1ccccc1)C2 | – | inactive: 10.8%
CN(C)S(=O)(=O)c1ccc(Cl)c(NC(=O)CSc2nc3c(cc2C#N)C(=O)CC(C)(C)C3)c1 | – | inactive: -19.4%
COc1ccc(Nc2nc(NC(C)(C)C)nc(N3CCCC3)n2)c(OC)c1 | inconclusive [inhibitor, full curve, poor fit] | –
Cc1cc(C)c(C)c(S(=O)(=O)N2CCN(c3ccc(O)cc3)CC2)c1C | inconclusive [inhibitor, single point] | –
NC1=NC(c2ccccc2)=NC1(NC(=O)c1ccccc1)C(Cl)Cl (stereo not given) | – | inactive: 15.4%
O=[N+]([O-])c1cccc(/C=N/N2CCN(Cc3ccccc3)CC2)c1 | – | inactive: 11.2%
CCc1nnc(NC(=O)CSc2nc(-c3ccccc3)cc(-c3ccc(OC)cc3)c2C#N)s1 | active: 7.94 µM | –
COc1ccc(C(=O)Nc2ccc(N3CCN(c4ccc(OC)cc4)CC3)c(C#N)c2)cc1 | active: 3.16 µM | –
Cc1nc(NC(=S)Nc2ccccc2)sc1C | active: 1.26 µM | –
CCN1C(=O)/C(=C/c2cccs2)SC1=Nc1ccc(OC)cc1 | inconclusive [inhibitor, single point] | –
COc1cccc(NC(=S)N2CCn3cccc3C2c2cccnc2)c1 (stereo not given) | – | inactive: -39.1%
CCc1cc2c(=O)c(-c3nc4ccccc4n3C)c(COCC(=O)O)oc2cc1O | inconclusive [inhibitor, partial curve, poor fit] | –
O=C1CCCC2=C1C1(CCCCC1)N=C(Nc1nc3ccccc3o1)N2 | inconclusive [inhibitor, partial curve] | –
O=C(N=Nc1c(O)n(C2OC(=O)c3ccccc32)c2ccccc12)c1ccco1 (stereo not given) | – | inactive: 10.1%
Cn1ccnc1SCC(=O)c1cc2ccccc2o1 | – | inactive: 3.08% [at 7.67 µM]
O=C(Cn1ccc2ccccc2c1=O)NCCC(=O)NC1CCN(Cc2ccccc2)CC1 | inconclusive [activator, single point] | –
O=C(NCc1nc2ccccc2[nH]1)C1=C[C@@H](C2CCCCC2)C[C@@H](OCc2ccc(CO)cc2)O1 | inconclusive [activator, partial curve] | –
CCNC(=S)N/N=C/c1ccc(OCC(=O)Nc2ccc(C)cc2)cc1 | – | inactive: -12% [at 46.1 µM]
CC(Sc1nnc(-c2cccs2)n1Cc1ccccc1)C(=O)NCc1ccc2c(c1)OCO2 (stereo not given) | inconclusive [inhibitor, single point] | –
N#CC(C#N)=Cc1cc2ccccc2nc1N1CCCCC1 | – | inactive: -53.5%

Structure (SMILES) | Potency | activity change, negative = inhibition
N#Cc1nc(COc2ccccc2F)oc1NCc1ccc(F)cc1 | inconclusive [inhibitor, partial curve, poor fit] | –
CCN(CC(=O)NCc1cccs1)c1ccc(S(=O)(=O)N2CCCC2)cn1 | – | inactive: 2.63%
Cc1cc(/C=C2\SC(=S)N(C)C2=O)c(C)n1-c1cccc(O)c1 | inconclusive [inhibitor, single point] | –
CC(CCc1ccco1)NC(=O)c1cc2c(-c3ccccc3F)nn(C)c2s1 (stereo not given) | inconclusive [inhibitor, partial curve] | –
CCCN(c1ccc(C(=O)OC)cc1)S(=O)(=O)c1ccccc1 | – | inactive: -23.7%
O=c1[nH]cnc2c1C1(CCCC1)Cc1ccccc1-2 | inconclusive [inhibitor, full curve] | –
CCOC(=O)c1cccc(NC(=O)c2cccnc2)c1 | – | inactive: -6.77% [at 46.1 µM]
Cc1ccn2c(-c3csc(NCc4ccccc4)n3)c(C)nc2c1 | inconclusive [inhibitor, single point] | –
COc1cc2c(cc1OC)CN(c1ccc([N+](=O)[O-])cc1C#N)CC2 | – | inactive: -9.63%
Cc1cccc(Nc2nc(NCc3ccco3)c3ccccc3n2)c1 | inconclusive [inhibitor, single point] | –
Cc1ccc(OCC(=O)Nc2ccc(N3CCN(C(=O)c4ccco4)CC3)cc2)cc1C | inconclusive [activator, single point] | –
CC(C)[C@H](NS(=O)(=O)c1ccc2c(c1)OCCO2)C(=O)OCC(=O)Nc1cccc(Cl)c1Cl | – | inactive: -2.86%
Cc1nc(-c2ccccc2)sc1-c1nc(-c2ccncc2)ncc1S(=O)(=O)c1ccccc1 | inconclusive [inhibitor, single point] | –
Cc1cccc(-n2c(=O)[nH]c3c(C(N)=O)nc(-c4ccccc4Cl)nc32)c1 | inconclusive [inhibitor, single point] | –
CCNc1nc(NC(C)C)nc(N(C#N)Cc2ccccc2)n1 | inconclusive [inhibitor, single point] | –
COc1ccc(C(=O)N2CCc3cc(OC)c(OC)cc3C2c2cccc([N+](=O)[O-])c2)cc1 (stereo not given) | inconclusive [inhibitor, partial curve, poor fit] | –
CCOC(=O)N1CCc2c(sc(NC(=O)c3ccc(Cl)s3)c2C(N)=O)C1 | active: 2.51 µM | –
Cc1cc(O)cc(O)c1C(=O)Cc1cscn1 | inconclusive [inhibitor, partial curve, poor fit] | –
O=C(O)c1ccc(N/N=C/c2ccc3nccnc3c2)cc1 | inconclusive [activator, partial curve] | –
CCOc1ccc(CC(=O)Nc2sc(Cc3ccccc3)cc2C(N)=O)cc1OCC | inconclusive [activator, single point] | –
CC1=C([N+](=O)[O-])C(c2cccc(Br)c2)C2=C(N1)c1ccccc1C2=O (stereo not given) | inconclusive [activator, full curve, poor fit] | –
CCOc1cc(CN2CCN(c3cccc(C(F)(F)F)c3)CC2)ccc1OC | inconclusive [inhibitor, single point] | –
